{
  "source": "the supplement of paper PMC12340641",
  "note": "In all, about 1,000 compounds were measured (“relative growth in counter assay (no AraC = 100%, AraC + DMSO = 0%)”: median about -1.1, highest 2% from about 20 on). This is one part of the list.",
  "data": [
    {"system": "HEK293FT dCK*-only", "test": "relative growth in counter assay (no AraC = 100%, AraC + DMSO = 0%); higher = more growth rescue independent of IKZF1", "details": "compound concentration: 5 uM; AraC concentration: 0.3 uM; overnight pretreatment + 4 days AraC", "description": "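Growth recovery screen of the molecular-glue-like (Specs) library. HEK293FT cells expressing a dCK*-IKZF1 fusion (primary) or dCK* alone (counter) were pretreated overnight with compound at 5 uM, then given 0.3 uM AraC for 4 days. Hoechst nuclei were counted by imaging. Primary: normalised to pomalidomide (100%) and DMSO (0%), mean of 2 replicates. Counter: normalised to no-AraC (100%) and AraC+DMSO (0%), single replicate.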", "units": {"relative growth in counter assay": "%"}, "values": [
      {"smiles": "Cc1ccc(C)c(OCC(=O)Nc2ccc(S(=O)(=O)Nc3ncccn3)cc2)c1", "relative growth in counter assay": -22.7},
      {"smiles": "CC(=O)Oc1cccc(N2C(=O)c3ccc(Oc4cccc(N)c4)cc3C2=O)c1", "relative growth in counter assay": -1.77},
      {"smiles": "Cc1ccc2[nH]c3nc(SCC(=O)Nc4ccc(C)c(Cl)c4)nnc3c2c1", "relative growth in counter assay": -28.4},
      {"smiles": "COC(=O)c1ccc(N2C(=O)c3ccc(Oc4cccc(N)c4)cc3C2=O)cc1", "relative growth in counter assay": 2.68},
      {"smiles": "Cc1noc(CCC(=O)N2CCOC(c3cccc(Nc4nc(C)c(C)s4)n3)C2)n1", "note": "(stereo not drawn)", "relative growth in counter assay": 5.54},
      {"smiles": "Cc1ccc(OCCCC(=O)Nc2ccc(S(=O)(=O)Nc3ccccn3)cc2)cc1", "relative growth in counter assay": 6.85},
      {"smiles": "Cc1cccc(Nc2nc(-c3sc(NC(=O)c4ccccc4)nc3C)cs2)n1", "relative growth in counter assay": 60.5},
      {"smiles": "O=C(Nc1ccc(S(=O)(=O)Nc2ncccn2)cc1)C1CC(=O)N(c2ccc(Cl)cc2)C1", "note": "(stereo not drawn)", "relative growth in counter assay": 2.5},
      {"smiles": "Cc1cnc(Nc2cccc(C3CCN(C(=O)C4(N)CCCCC4)CC3)n2)s1", "relative growth in counter assay": -25.1},
      {"smiles": "Cc1ccc(C(=O)Nc2ccc(S(=O)(=O)Nc3cc(C)nc(C)n3)cc2)cc1", "relative growth in counter assay": -2.2},
      {"smiles": "CC1(C)C=C(CC(=O)N2CCOC(c3cccc(Nc4nccs4)n3)C2)CC(C)(C)N1", "note": "(stereo not drawn)", "relative growth in counter assay": 6.81},
      {"smiles": "Cc1cnc(Nc2cc(C3CCN(C(=O)/C=C/c4cnc[nH]4)CC3)ccn2)s1", "relative growth in counter assay": -11.5},
      {"smiles": "COCCOCC(=O)Nc1ccc(S(=O)(=O)Nc2nc(C)cc(C)n2)cc1", "relative growth in counter assay": -9.08},
      {"smiles": "Cc1cc(OCC(=O)Nc2ccc(S(=O)(=O)Nc3ncccn3)cc2)ccc1C(C)C", "relative growth in counter assay": 15.9},
      {"smiles": "CCN(CC)C(=O)CN1CCC(c2cccc(Nc3nccs3)n2)CC1", "relative growth in counter assay": 2.7},
      {"smiles": "Cc1ccn2cc(C(=O)N3CCCC3c3cccc(Nc4nc(C)c(C)s4)n3)nc2c1", "note": "(stereo not drawn)", "relative growth in counter assay": 17.6},
      {"smiles": "O=C(c1cccc2cccnc12)N1CCCC1c1cccc(Nc2nccs2)n1", "note": "(stereo not drawn)", "relative growth in counter assay": -1.15},
      {"smiles": "Cc1ccc(S(=O)(=O)Nc2ccc(S(=O)(=O)Nc3ncccn3)cc2)cc1", "relative growth in counter assay": 3.78},
      {"smiles": "Cc1ccnc(NS(=O)(=O)c2ccc(NC(=O)COc3ccc(Cl)cc3)cc2)n1", "relative growth in counter assay": 4.78},
      {"smiles": "Cc1cnc(Nc2cccc(C3CCN(C(=O)C4CCC(=O)N4)CC3)n2)s1", "note": "(stereo not drawn)", "relative growth in counter assay": -24.6},
      {"smiles": "Cc1cccc(OCCCC(=O)Nc2ccc(S(=O)(=O)Nc3ncccn3)cc2)c1", "relative growth in counter assay": 1.93},
      {"smiles": "Cc1ccc(CC(=O)Nc2ccc(S(=O)(=O)Nc3ncccn3)cc2)cc1", "relative growth in counter assay": -18.2},
      {"smiles": "CCC(C)(C)C(=O)Nc1ccc(S(=O)(=O)Nc2ncccn2)cc1", "relative growth in counter assay": -5.73},
      {"smiles": "COc1ccccc1CCC(=O)N1CCOC(c2cccc(Nc3ncc(C)s3)n2)C1", "note": "(stereo not drawn)", "relative growth in counter assay": 8.09},
      {"smiles": "O=C(C1CCCCC1)N1CCOC(c2cccc(Nc3ncc(Cc4ccc(F)cc4)s3)n2)C1", "note": "(stereo not drawn)", "relative growth in counter assay": -1.26},
      {"smiles": "Cc1cnc(Nc2cccc(C3CCN(C(=O)C4CCCC4)CC3)n2)s1", "relative growth in counter assay": -18.7},
      {"smiles": "COc1ccc(OCC(=O)Nc2ccc(S(=O)(=O)Nc3ccccn3)cc2)cc1", "relative growth in counter assay": 4.59},
      {"smiles": "O=C(C1CCCCC1)N1CCC(c2cccc(Nc3ncc(Cc4ccccc4)s3)n2)CC1", "relative growth in counter assay": -8.2},
      {"smiles": "Cc1cc(C)nc(NS(=O)(=O)c2ccc(NC(=O)c3ccc(C)c(C)c3)cc2)n1", "relative growth in counter assay": 3.76},
      {"smiles": "CCCc1cnc(Nc2cccc(C3CCN(C(=O)[C@@H]4CCCN4C(=O)OC(C)(C)C)CC3)n2)s1", "relative growth in counter assay": -22.3},
      {"smiles": "Cc1cc(C)nc(NS(=O)(=O)c2ccc(NC(=O)COc3c(C)cccc3C)cc2)n1", "relative growth in counter assay": -15.3},
      {"smiles": "Cc1cc(C)nc(NS(=O)(=O)c2ccc(NCc3cc(Cl)ccc3O)cc2)n1", "relative growth in counter assay": 3.82},
      {"smiles": "O=C(c1[nH]nc2c1CCCCC2)N1CCCC1c1cccc(Nc2nccs2)n1", "note": "(stereo not drawn)", "relative growth in counter assay": -22.1},
      {"smiles": "COC(=O)C(c1cccc(Nc2ncc(C)s2)n1)C1CCN(C(=O)[C@H](CC(C)C)NC(=O)OC(C)(C)C)CC1", "note": "(stereo partly drawn)", "relative growth in counter assay": -2.35},
      {"smiles": "CNC(=O)c1cnc(Nc2cccc(C3CCN(C(=O)C4CCCCC4)CC3)n2)s1", "relative growth in counter assay": -12.1},
      {"smiles": "COc1cc(NS(=O)(=O)c2ccc(NC(=O)c3ccc([N+](=O)[O-])cc3)cc2)nc(OC)n1", "relative growth in counter assay": 4.43},
      {"smiles": "O=C(CSc1nnc2c(n1)[nH]c1ccc(F)cc12)Nc1cccc(F)c1", "relative growth in counter assay": 5.51},
      {"smiles": "COc1cc(OC)cc(C(=O)Nc2ccc(S(=O)(=O)Nc3ncccn3)cc2)c1", "relative growth in counter assay": -0.19},
      {"smiles": "Cc1cnc(Nc2cccc(C3CN(C(=O)C4C5C6CCC(C6)C45)CCO3)n2)s1", "note": "(stereo not drawn)", "relative growth in counter assay": -14.3},
      {"smiles": "O=C(C1CNCCO1)N1CCC(c2cccc(Nc3ncc(-c4ccccc4)s3)n2)CC1", "note": "(stereo not drawn)", "relative growth in counter assay": 1.14},
      {"smiles": "CC(C)CC(=O)N1CCCC1c1csc(Nc2ccccn2)n1", "note": "(stereo not drawn)", "relative growth in counter assay": -4},
      {"smiles": "C[C@@]1(O)CNCC[C@H]1n1cnc2c(N)nc(N)nc21", "relative growth in counter assay": -26.7},
      {"smiles": "COCC(=O)N1CCCC(Cc2ccc(Nc3ncc(-c4ccc(F)cc4)s3)nc2)C1", "note": "(stereo not drawn)", "relative growth in counter assay": -8.41},
      {"smiles": "Cc1cc(NS(=O)(=O)c2ccc(NC(=O)c3oc4ccccc4c3C)cc2)nc(C)n1", "relative growth in counter assay": 2.64},
      {"smiles": "Cc1cnc(NC(=O)CN2CCC(c3cccc(Nc4ncc(C)s4)n3)CC2)s1", "relative growth in counter assay": -16.5},
      {"smiles": "Cc1cc(OCC(=O)Nc2ccc(S(=O)(=O)Nc3ccccn3)cc2)cc(C)c1Cl", "relative growth in counter assay": 7.79},
      {"smiles": "CCN(CC)C(=O)CN1CCC(c2cccc(Nc3nc(C)c(C)s3)n2)CC1", "relative growth in counter assay": 3.37},
      {"smiles": "Cc1cnc(Nc2cccc(C3CN(C(=O)C4CCOC4)CCO3)n2)s1", "note": "(stereo not drawn)", "relative growth in counter assay": -17.1}
    ]}
  ]
}
